According to PMC4336329 (PLoS ONE, 2015):
Screen size: about 310,000 compounds; about 2,200 (0.71%) showed an effect of 50% or more. The effect is printed as a negative number. The list shows a part of the results.

Each molecule was assayed against human ether-à-go-go-related gene (hERG) potassium channel (human, UniProt Q12809) (assay: primary screen, population patch clamp on CHO cells stably expressing hERG).
Chain of human ether-à-go-go-related gene (hERG) potassium channel (Q12809 whole entry, looked up): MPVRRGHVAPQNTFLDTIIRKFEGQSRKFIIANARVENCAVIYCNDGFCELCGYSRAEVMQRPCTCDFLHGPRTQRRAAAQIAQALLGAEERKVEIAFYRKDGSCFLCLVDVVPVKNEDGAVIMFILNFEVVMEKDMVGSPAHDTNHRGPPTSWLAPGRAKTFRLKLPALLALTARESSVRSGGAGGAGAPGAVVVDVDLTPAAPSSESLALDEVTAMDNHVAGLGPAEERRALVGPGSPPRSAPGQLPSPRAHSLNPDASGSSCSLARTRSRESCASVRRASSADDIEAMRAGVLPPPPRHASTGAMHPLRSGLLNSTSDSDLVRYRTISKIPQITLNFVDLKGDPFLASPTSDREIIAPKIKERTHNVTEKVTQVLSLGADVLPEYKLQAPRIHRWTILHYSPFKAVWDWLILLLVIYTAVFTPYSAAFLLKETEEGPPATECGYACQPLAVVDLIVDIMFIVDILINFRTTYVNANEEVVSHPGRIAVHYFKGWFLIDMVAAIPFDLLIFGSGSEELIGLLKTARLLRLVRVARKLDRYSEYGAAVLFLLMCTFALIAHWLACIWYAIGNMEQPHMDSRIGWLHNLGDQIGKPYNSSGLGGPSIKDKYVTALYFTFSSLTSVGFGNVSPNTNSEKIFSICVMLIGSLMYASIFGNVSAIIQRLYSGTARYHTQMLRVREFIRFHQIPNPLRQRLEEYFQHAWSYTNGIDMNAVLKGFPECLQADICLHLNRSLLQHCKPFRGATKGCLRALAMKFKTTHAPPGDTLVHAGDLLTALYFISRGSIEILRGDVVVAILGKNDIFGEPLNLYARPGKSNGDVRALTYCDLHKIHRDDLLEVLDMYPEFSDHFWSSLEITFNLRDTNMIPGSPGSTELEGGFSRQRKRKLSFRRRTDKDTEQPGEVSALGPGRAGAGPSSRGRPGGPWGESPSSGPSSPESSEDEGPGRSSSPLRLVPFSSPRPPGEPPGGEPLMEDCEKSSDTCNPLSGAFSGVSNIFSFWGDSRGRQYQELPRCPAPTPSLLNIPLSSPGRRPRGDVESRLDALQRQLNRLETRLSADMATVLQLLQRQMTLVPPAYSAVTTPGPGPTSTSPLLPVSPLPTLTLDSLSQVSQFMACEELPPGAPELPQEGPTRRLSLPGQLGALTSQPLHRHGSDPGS

Question: Which “hERG current change (%, negative = inhibition) at 1uM” value does the source give for `NC(=O)c1cccc2c1-c1ccccc1/C2=N/NC(N)=S` here?
Answer: 13%

Question: `Cc1ccccc1NC(=O)c1csc2c1CCCC2` was tested. Which “hERG current change (%, negative = inhibition) at 1uM” value did it give?
Answer: -1.22%

Question: `NS(=O)(=O)c1ccc(NC(=S)NCc2ccc(Cl)cc2)cc1` was tested. Which “hERG current change (%, negative = inhibition) at 1uM” value did it give?
Answer: 13.1%

Question: With `CC(Oc1ccc(C(=O)NCCc2ccccc2)cc1)C(=O)O` (stereo not drawn) as the molecule, how does the “hERG current change (%, negative = inhibition) at 1uM” value read?
Answer: 0.477%

Question: Which “hERG current change (%, negative = inhibition) at 1uM” value does the source give for `CN1C(=O)/C(=C/C=C2/CCCN2C)N(C)C1=S` here?
Answer: 10.7%

Question: For `COc1ccc(CC(=O)O/N=C(\N)c2ccc(Br)cc2)cc1OC`, which “hERG current change (%, negative = inhibition) at 1uM” value is on record?
Answer: 12.3%

Question: With `CSc1ccc(-c2nc(CSCC(=O)NC3CC3)c(C)o2)cc1` as the molecule, how does the “hERG current change (%, negative = inhibition) at 1uM” value read?
Answer: 5.23%

Question: Which “hERG current change (%, negative = inhibition) at 1uM” value does the source give for `O=c1c2ccccc2nc2sc(Nc3ccc(F)cc3)nn12` here?
Answer: -0.635%

Question: `O=S(=O)(Nc1ccc2ccccc2n1)c1ccccc1Cl` was tested. Which “hERG current change (%, negative = inhibition) at 1uM” value did it give?
Answer: 1.8%

Question: `Cc1ccc(CNC(=O)C2(c3cccs3)CCOCC2)cc1` was tested. Which “hERG current change (%, negative = inhibition) at 1uM” value did it give?
Answer: -0.342%

Question: For `CCCCNS(=O)(=O)c1ccc(NC(=O)c2c(-c3ccccc3Cl)noc2C)cc1`, which “hERG current change (%, negative = inhibition) at 1uM” value is on record?
Answer: 9.85%

Question: With `N=c1c2c(ncn1CCCO)Oc1ccc3ccccc3c1C2c1ccccc1` (stereo not drawn) as the molecule, how does the “hERG current change (%, negative = inhibition) at 1uM” value read?
Answer: 3.38%

Question: For `CC1(C)CC(=O)C2=C(C1)c1c(ccc3ccccc13)NC2c1ccc(OCC(=O)O)cc1` (stereo not drawn), which “hERG current change (%, negative = inhibition) at 1uM” value is on record?
Answer: 10.8%

Question: `O=C(/C=C/c1ccccc1)NCCSc1ccc(Cl)cc1` was tested. Which “hERG current change (%, negative = inhibition) at 1uM” value did it give?
Answer: 10.7%

Question: For `COc1cccc(NC(=O)CSCc2cc(=O)n3ccsc3n2)c1`, which “hERG current change (%, negative = inhibition) at 1uM” value is on record?
Answer: 4.88%

Question: How did the “hERG current change (%, negative = inhibition) at 1uM” value turn out when `COc1cc(SC#N)ccc1N=Cc1c(C)[nH]n(-c2ccc(C)cc2)c1=O` was run?
Answer: -5.65%

Question: With `CCCS(=O)(=O)N1CCC(C(=O)NCc2ccc3c(c2)OCO3)CC1` as the molecule, how does the “hERG current change (%, negative = inhibition) at 1uM” value read?
Answer: -0.895%

Question: For `O=C(O)COc1ccccc1/C=N/NC(=O)CSc1nc2ccccc2c(=O)n1-c1ccccc1`, which “hERG current change (%, negative = inhibition) at 1uM” value is on record?
Answer: 5.27%

Question: With `Cc1cc(C(=O)N/N=C/c2ccc(N(C)C)cc2)c2ccccc2n1` as the molecule, how does the “hERG current change (%, negative = inhibition) at 1uM” value read?
Answer: 18.7%

Question: With `COc1ccc(S(=O)(=O)N2CCOC2CNC(=O)C(=O)NCCc2ccccc2)cc1C` (stereo not drawn) as the molecule, how does the “hERG current change (%, negative = inhibition) at 1uM” value read?
Answer: 7.75%

Question: How did the “hERG current change (%, negative = inhibition) at 1uM” value turn out when `Cc1ccc(OCc2cc(C(=O)N3CCC(Oc4cccnc4)CC3)no2)cc1C` was run?
Answer: -9.84%

Question: With `Cc1ccc(C)c(Cn2c(=O)n(-c3ccc(CC(=O)NCc4ccco4)cc3)c(=O)c3sccc32)c1` as the molecule, how does the “hERG current change (%, negative = inhibition) at 1uM” value read?
Answer: 5.54%

Question: `Cc1c(C(=O)N(C)CCn2ccnc2C)oc2c(F)cccc12` was tested. Which “hERG current change (%, negative = inhibition) at 1uM” value did it give?
Answer: -3.26%

Question: How did the “hERG current change (%, negative = inhibition) at 1uM” value turn out when `CCOc1ccccc1OCCOc1ccccc1CC` was run?
Answer: 17.7%

Question: How did the “hERG current change (%, negative = inhibition) at 1uM” value turn out when `COc1ccc(OC)c(NC(=O)CSc2nnc(C3CCCCC3)n2-c2ccccc2)c1` was run?
Answer: 10.2%

Question: For `O=C(c1ccncc1)c1ccc(NC(=O)c2cccs2)cc1`, which “hERG current change (%, negative = inhibition) at 1uM” value is on record?
Answer: 14.7%

Question: With `c1ccc(-c2ccc(C3CCCN3)cc2)cc1` (stereo not drawn) as the molecule, how does the “hERG current change (%, negative = inhibition) at 1uM” value read?
Answer: 7.34%

Question: How did the “hERG current change (%, negative = inhibition) at 1uM” value turn out when `Cc1noc(C)c1C(=O)N1CCCC(C(=O)c2cccc(C(F)(F)F)c2)C1` (stereo not drawn) was run?
Answer: -6.11%

Question: `Cc1ccc(C)c(NC(=S)NNC(=S)Nc2ccc(C(C)C)cc2)c1` was tested. Which “hERG current change (%, negative = inhibition) at 1uM” value did it give?
Answer: 22.4%

Question: With `CCOc1ccc(CNC(=O)CCc2cn(C)c3ccccc23)cc1OC` as the molecule, how does the “hERG current change (%, negative = inhibition) at 1uM” value read?
Answer: -6.4%

Question: How did the “hERG current change (%, negative = inhibition) at 1uM” value turn out when `Cc1cc(C)c2c(c1)/C(=N\N=c1\sc3ccccc3n1C)C(=O)N2` was run?
Answer: 13.2%

Question: How did the “hERG current change (%, negative = inhibition) at 1uM” value turn out when `Cc1ccc2c(C)c(C(=O)N3CCN(C4CCS(=O)(=O)C4)CC3)oc2c1C` (stereo not drawn) was run?
Answer: 8.83%

Question: How did the “hERG current change (%, negative = inhibition) at 1uM” value turn out when `COCCn1c(=NC(=O)CSCC(=O)N2CCOCC2)sc2cc(C)ccc21` was run?
Answer: 5.17%

Question: Which “hERG current change (%, negative = inhibition) at 1uM” value does the source give for `Cc1ccc(-c2nnn(Cc3nc4ccccc4s3)n2)cc1` here?
Answer: 6.93%

Question: Which “hERG current change (%, negative = inhibition) at 1uM” value does the source give for `Cc1cccc2cc3c(N)c(C(=O)N4CCc5ccccc54)sc3nc12` here?
Answer: 10.8%

Question: Which “hERG current change (%, negative = inhibition) at 1uM” value does the source give for `CCN(CC)S(=O)(=O)c1ccc(N2CCOCC2)c(NC(=O)c2cc(C)cc(C)c2)c1` here?
Answer: 0.146%

Question: Which “hERG current change (%, negative = inhibition) at 1uM” value does the source give for `CN1C[C@@H]2C(c3ccccc3)C3(c4ccccc4)CC2(C3)[C@H]1c1ccccc1` (stereo partly drawn) here?
Answer: -8.54%

Question: For `CCCNC(=O)Cn1nc(C(F)(F)F)c2c1CCC2`, which “hERG current change (%, negative = inhibition) at 1uM” value is on record?
Answer: -0.429%

Question: How did the “hERG current change (%, negative = inhibition) at 1uM” value turn out when `COc1ccc(S(=O)(=O)N(CC(=O)NCc2ccco2)c2ccccc2OC)cc1` was run?
Answer: -9.74%

Question: For `O=C(COc1cccc(F)c1)NNC(=O)Cc1ccc(S(=O)(=O)N2CCOCC2)s1`, which “hERG current change (%, negative = inhibition) at 1uM” value is on record?
Answer: 6.28%

Question: Which “hERG current change (%, negative = inhibition) at 1uM” value does the source give for `CCCn1c(N/N=C(C)\C=C\c2ccccc2)nc2c1c(=O)[nH]c(=O)n2C` here?
Answer: 9.9%

Question: With `COC(=O)C1=CN(Cc2ccc(OC)c(OC)c2)C=C(C(=O)OC)C1c1ccccc1F` as the molecule, how does the “hERG current change (%, negative = inhibition) at 1uM” value read?
Answer: 14.7%

Question: How did the “hERG current change (%, negative = inhibition) at 1uM” value turn out when `Cc1nc2c(c3c1[nH]c1ccccc13)C(O)CC(C)(C)C2` (stereo not drawn) was run?
Answer: 0.553%

Question: With `O=C(CCC1CCCCC1)NCCN1C2=NC[C@@H](Cc3ccccc3)N2C[C@H]1Cc1ccc(O)cc1` as the molecule, how does the “hERG current change (%, negative = inhibition) at 1uM” value read?
Answer: -0.771%

Question: With `COc1ccccc1CNC(=O)CNCC1CCCO1.O=C(O)C(=O)O` (stereo not drawn) as the molecule, how does the “hERG current change (%, negative = inhibition) at 1uM” value read?
Answer: -5.21%

Question: How did the “hERG current change (%, negative = inhibition) at 1uM” value turn out when `Nn1c(SCC(=O)Nc2ccc3c(c2)OCO3)nnc1-c1ccc(Cl)cc1` was run?
Answer: 4.19%

Question: With `Cc1cccc(NC(=O)C(C)OC(=O)c2ccccc2NS(=O)(=O)c2cc(C)c(C)c([N+](=O)[O-])c2)c1` (stereo not drawn) as the molecule, how does the “hERG current change (%, negative = inhibition) at 1uM” value read?
Answer: 11%

Question: Which “hERG current change (%, negative = inhibition) at 1uM” value does the source give for `COc1ccc(CCNC(=O)C2CCN(S(=O)(=O)c3cccs3)CC2)cc1OC` here?
Answer: 11%

Question: With `Cc1ccc(C(=O)NNC(=O)CSc2nnc3c(n2)[nH]c2ccc(F)cc23)cc1` as the molecule, how does the “hERG current change (%, negative = inhibition) at 1uM” value read?
Answer: 6.52%

Question: Which “hERG current change (%, negative = inhibition) at 1uM” value does the source give for `CC(C)CNS(=O)(=O)c1ccc(OCC(=O)Nc2ccc(F)cc2F)cc1` here?
Answer: 13.7%

Question: For `Cc1ccc(-n2c(O)c(C=Nc3ccccc3-c3n[nH]c(=S)[nH]c3=O)c3ccccc3c2=O)c(C)c1`, which “hERG current change (%, negative = inhibition) at 1uM” value is on record?
Answer: 3.45%

Question: How did the “hERG current change (%, negative = inhibition) at 1uM” value turn out when `COc1ccc(C(O)P(=O)(Oc2ccccc2)Oc2ccccc2)cc1` (stereo not drawn) was run?
Answer: 14.6%

Question: Which “hERG current change (%, negative = inhibition) at 1uM” value does the source give for `O=S1(=O)c2ccccc2N=NN1Cc1ccc(Cl)c(Cl)c1` here?
Answer: 5.49%

Question: With `COc1cccc(C2=CC(c3ccccc3)n3nnnc3N2)c1` (stereo not drawn) as the molecule, how does the “hERG current change (%, negative = inhibition) at 1uM” value read?
Answer: 11%
